For this assay, the system named is SW 982 tumor spheroid viability. Put plainly: Anticancer human tumor SW 982 cell line growth inhibition.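 Also: spheroids exposed to compound for 7 days before readout.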 The conditions noted are these: stronger effect = lower value, spheroids with HUVEC and MSC. The source says: Multicellular complex tumor spheroid response to DNA repair inhibitors in combination with DNA-damaging drugs
This study explores the anticancer activities of DNA-damaging drugs and inhibitors of DNA damage repair, both as single agents and in combinations. Complex tumor spheroids comprised of malignant cells, endothelial cells and mesenchymal stem cells served as an in vitro model for human solid tumors. This model system incorporates physiologically relevant features and patient-derived or established malignant cell lines with clinically relevant genetic alterations from many tumor types. Twenty-six patient-derived or established malignant cell lines were evaluated representing sarcoma, melanoma, small cell lung cancer (SCLC), non-small cell lung cancer (NSCLC), as well as bladder, ovarian and pancreatic cancers. The concentration ranges selected for each drug and investigational agent were based upon clinically achievable concentrations if the clinical Cmax of the agent was known.
Compounds. The drugs and compounds olaparib (NSC753686), talazoparib (NSC767125), berzosertib (NSC777718), elimusertib (NSC800525), nedisertib (NSC802822), VX-984 (NSC792969), AZD-1390 (NSC803789), temozolomide (NSC362856), topotecan (NSC609699), trabectedin (NSC813783), staurosporine (NSC755774), and gemcitabine (NSC613327) were obtained from the National Cancer Institute (NCI) Developmental Therapeutics Program Chemical Repository. The FDA-approved anticancer drug set is available from the Developmental Therapeutics Program at https://dtp.cancer.gov/organization/dscb/obtaining/available_plates.htm. […] The stock solutions were prepared in dimethyl sulfoxide (DMSO, Sigma-Aldrich, St. Louis, MO, cat. D2650) at 400-fold the tested concentration and stored at -70 degrees C. Prior to their use, the stock solutions were diluted in fresh medium and the final DMSO concentration in the assay was 0.25% (v/v). All drugs and investigational agents were tested over a range starting from a high concentration at or near the clinical Cmax and decreasing in half-log increments. If the clinical Cmax for an agent had not been determined, the highest concentration tested was 10 microM.
Cell Lines. The patient-derived cancer cell (PDC) lines: 156681-154-R-J1-PDC, 283228-195-R-J1-PDC, 287954-098-R-J1-PDC, 292921-168-R-J2-PDC, 349418-098-R-PDC, 425362-245-T-J1-PDC, 556581-035-R-J1-PDC, and BL0293-F563-PDC were received from the NCI Patient-Derived Models Repository (PDMR, https://pdmr.cancer.gov). The established cell lines HS-SY-2 (RRID:CVCL_8719), MPNST, and SYO-1 (RRID:CVCL_7146) were obtained from the Sloan Kettering Institute. The alveolar soft parts sarcoma cell line ASPS-1 (RRID:CVCL_S738) was established at the NCI and grown from internal seed stocks. […]

Not every entry of the source has a single result; some have several. They are shown here; other results are not. The source may hold further records. Values that stand side by side repeat one measurement across runs, samples, wells, individuals or studies.

As usually defined, the viability, T/C is the result in the treated group divided by that in the control group, in per cent.

As to `COc1cc2c(cc1O)CCNC21CSC2c3c(OC(C)=O)c(C)c4c(c3C(COC1=O)N1C(O)C3Cc5cc(C)c(OC)c(O)c5C(C21)N3C)OCO4` (centres undefined), the viability, T/C is 109, 99.2, 96, 96.9, 102, 100, 97.4, 132, 101, 92.4% (compound 30 pM); 97.4, 99.8, 98, 89.1, 97.7, 90.9, 95.7, 129, 89.3, 103% (compound 94.9 pM); 75.9, 77.4, 77.7, 67.9, 73.5, 69.4, 86.4, 121, 87.3, 79.2% (compound alone 0.0003 µM); 35.6, 37.8, 43.9, 32.4, 34.4, 36.8, 44, 68.1, 32.2, 39.4% (compound alone 0.000949 µM).

These data come from PubChem BioAssay AID1845216 (Molecular Pharmacology Branch, DTP, NCI, 2023).
